Laboratory results published in PubChem BioAssay AID485281 (National Center for Advancing Translational Sciences (NCATS), 2010).
Screen size: about 350,000 compounds; about 260 (0.074%) were called active. The inconclusive results got no clear call from the source; some entries with a clear call stand among them for comparison. Calls follow the shape of the dose curve; as a rule, active = well fitted inhibition curve with a large enough effect; inconclusive = small, poorly fitted or top-dose-only effect; inactive = no such curve, though single readings can be large or run the other way. Potencies beside an inconclusive call are fits to weak or partial responses and may not hold up.

Each compound was assayed against Ferritin light chain (Equus caballus) (UniProt P02791) (assay: qHTS Assay for Identification of Novel General Anesthetics). Settings: apoferritin/1-aminoanthracene competitive binding, fluorescence; activity change, negative = displacement: at 77.5 µM (top of the series).
Chain of UniProt P02791 (P02791 whole entry, looked up): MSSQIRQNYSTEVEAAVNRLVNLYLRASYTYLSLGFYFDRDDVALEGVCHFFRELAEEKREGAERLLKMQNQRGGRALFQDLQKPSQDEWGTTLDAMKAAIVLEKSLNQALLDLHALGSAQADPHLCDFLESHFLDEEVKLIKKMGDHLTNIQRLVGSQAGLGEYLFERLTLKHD
Method in brief: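 Horse-spleen apoferritin (10 uM) in 50% saturated 1-aminoanthracene in PBS was incubated 10 min at room temperature with compound. Fluorescence (ex 380, em 535 nm) was normalized to free and bound 1-AMA, with concentration-response fitted by a four-parameter Hill equation.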
% is scaled to controls: 0 for no effect and ±100 for the full control effect; potency is read from the fitted curve at half-maximal effect; tags tell the direction and shape of the fitted curve.
Also: nearly all actives have a fitted effect of over 20% in size.

Structure (SMILES)	Potency	activity change, negative = displacement
O=C(C1CC1)N1CCC(c2nc(-c3ccc(S(=O)(=O)N4CCCC4)cc3)no2)CC1	inconclusive: 25.1 µM [inhibitor, single point]	–
CC/C=C\C/C=C\C/C=C\C/C=C\C/C=C\CCCCCC(=O)O	–	inactive: 0.393%
O=C(Nc1ncc(Cl)cc1Cl)c1c(F)cccc1Cl	inconclusive: 35.5 µM [inhibitor, partial curve]	–
CCc1ccccc1Nc1nc2ccccc2c2nncn12	inconclusive: 44.7 µM [inhibitor, partial curve, poor fit]	–
O=C(CNC(=O)c1ccc2c(c1)OCCO2)N/N=C/c1ccc(Cl)cc1	inconclusive: 7.08 µM [inhibitor, full curve]	–
O=C(C[n+]1cccc(NC(=O)c2ccccc2)c1)c1cccc([N+](=O)[O-])c1	inconclusive: 17.8 µM [inhibitor, partial curve]	–
Fc1ccc(N/N=C2/CC(c3ccccc3)Oc3ccccc32)c(F)c1 (stereo not drawn)	inconclusive: 11.2 µM [inhibitor, partial curve]	–
CCOc1ccccc1NC1c2ccccc2C(=O)N1Cc1ccco1 (stereo not drawn)	inconclusive: 39.8 µM [inhibitor, single point]	–
Cc1cc2ncn(-c3ncnc4sc5c(c34)CCC(C)C5)c2cc1C (stereo not drawn)	inconclusive: 3.55 µM [inhibitor, partial curve]	–
O=c1[nH]c2ccccc2nc1/C=C(\O)c1cccs1	–	inactive: -14.5%
Cc1n[nH]c(C)c1CCCCOc1ccccc1[N+](=O)[O-]	inconclusive: 15.8 µM [inhibitor, partial curve]	–
CC1CCCC(C)N1C(=O)CSc1nnnn1-c1cccc2c1CCCC2 (stereo not drawn)	inconclusive: 3.55 µM [inhibitor, full curve]	–
O=C1Nc2ccc(Cl)cc2C(C#CC2CC2)(C(F)(F)F)O1 (stereo not drawn)	inconclusive: 11.2 µM [inhibitor, partial curve]	–
CCCC(C)NC(=O)c1nc(-c2ccccc2)n(-c2ccccc2)n1 (stereo not drawn)	inconclusive: 56.2 µM [inhibitor, single point]	–
Cc1cccc(NC(=O)C2CCC(CNS(=O)(=O)c3csc(C(N)=O)c3)CC2)c1C (stereo not drawn)	–	inactive: -7.02%
CC(C)C(=O)NC(c1ccc(Cl)cc1Cl)c1ccc2cccnc2c1O (stereo not drawn)	inconclusive: 17.8 µM [inhibitor, partial curve]	–
Cc1ccc(S(=O)(=O)c2nc(S(C)(=O)=O)sc2N(C)Cc2ccccc2)cc1	inconclusive: 14.1 µM [inhibitor, partial curve]	–
CS(=O)(=O)c1ccc(C(=O)OCc2nnc(-c3ccc(Cl)cc3)o2)cc1[N+](=O)[O-]	–	inactive: -17.5%
CCOC(=O)COc1ccccc1C1C(C(=O)OC)=C(C)NC2=C1C(=O)c1ccccc12 (stereo not drawn)	inconclusive: 35.5 µM [inhibitor, partial curve]	–
Cc1c(C(C)C)c(=O)n(-c2ccc(S(=O)(=O)N3CCOCC3)cc2)n1C	–	inactive: -4.67%
CC1CCc2c(sc3nc(CN4CCOCC4)nc(N4CCc5ccccc5C4)c23)C1 (stereo not drawn)	inconclusive: 35.5 µM [inhibitor, single point]	–
OCCNCc1cc(Br)ccc1OCc1ccc(Cl)cc1Cl	–	inactive: 5.59%
Cc1cccc(NCCC(=O)c2ccc(Br)cc2)c1	inconclusive: 20 µM [inhibitor, partial curve]	–

Structure (SMILES)	Potency	activity change, negative = displacement
Cc1ccccc1NC(=O)C(=Cc1ccc(C(=O)O)cc1)C(=O)Nc1ccccc1C	–	inactive: -5.41%
O=C(CSc1ncc2c(n1)-c1ccccc1N(Cc1ccc(Cl)cc1)S2(=O)=O)c1ccccc1	inconclusive: 3.16 µM [inhibitor, full curve]	–
Nc1nc2ccc(C(=O)N3CCCCC3)cc2s1	–	inactive: -4.7%
Cc1ccc(CC(NC(=O)c2ccccc2)C(=O)N2CCCC2C(=O)O)cc1 (stereo not drawn)	–	inactive: -7.46%
COCCCNC(=O)/C=C/c1ccc(OCc2c(F)cccc2Cl)cc1	inconclusive: 31.6 µM [inhibitor, partial curve]	–
CC(C)(C)C(=O)Nc1nnc(SCc2ccc(F)cc2)s1	inconclusive: 17.8 µM [inhibitor, partial curve]	–
COc1ccc(OCc2cc(C(=O)N(C)C3CCOCC3)no2)c2ccccc12	–	inconclusive: -25.2% [inhibitor]
COc1cc(-c2c(C#N)c(N)nc(SCc3ccncc3)c2C#N)cc(OC)c1OC	inconclusive: 50.1 µM [inhibitor, partial curve, poor fit]	–
CN(C(=O)c1cncc(Br)c1)C1C2CC3CC(C2)CC1C3 (stereo not drawn)	inconclusive: 5.62 µM [inhibitor, full curve]	–
O=C(Nc1ncc(C(F)(F)F)cc1Cl)C1COc2ccccc2O1 (stereo not drawn)	inconclusive: 31.6 µM [inhibitor, partial curve]	–
COC1CCCCC1Nc1ccc(C)c(C)c1 (stereo not drawn)	inconclusive: 22.4 µM [inhibitor, partial curve]	–
COc1ccc(OCCn2nnc3sc4c(c3c2=O)CCCC4)cc1	inconclusive: 35.5 µM [inhibitor, partial curve]	–
COc1ccc(C(=O)Nc2ccc(S(=O)(=O)N3CCN(C)CC3)cc2)cc1[N+](=O)[O-]	inconclusive: 35.5 µM [inhibitor, single point]	–
CC(C)(C)c1ccc(-c2nnc(N)s2)cc1	inconclusive: 22.4 µM [inhibitor, partial curve]	–
CCCC(C(=O)NCCC(C)C)N(Cc1ccc(OC)cc1)C(=O)c1snc(C(N)=O)c1N (stereo not drawn)	inconclusive: 5.01 µM [inhibitor, full curve]	–
O=C(CNS(=O)(=O)c1ccccc1)N/N=C/c1ccc(O)cc1	inconclusive: 25.1 µM [inhibitor, partial curve]	–
Cc1occc1C(=O)Nc1ccc(Br)cc1F	inconclusive: 35.5 µM [inhibitor, partial curve]	–
Cc1cc(=O)oc2cc(OCC(=O)Nc3c(Cl)cccc3C(F)(F)F)ccc12	inconclusive: 35.5 µM [inhibitor, single point]	–
COC(=O)c1ccc2nc(C)cc(Nc3cccc(Cl)c3C)c2c1	–	inactive: 41.9%
Cn1c(=O)c2c(c3ccccc31)OC(C)(C)CC2	inconclusive: 35.5 µM [inhibitor, partial curve]	–
O=C(CNC(=O)c1ccccc1)N/N=C/c1ccccc1Cl	inconclusive: 7.94 µM [inhibitor, partial curve]	–
CCOc1ccc(/C=N/N(C)c2ccccc2)cc1OC	–	inactive: 64.1%
CCCNS(=O)(=O)c1cccc(C(=O)NC2CCCc3ccccc32)c1 (stereo not drawn)	inconclusive: 22.4 µM [inhibitor, partial curve]	–

Structure (SMILES)	Potency	activity change, negative = displacement
CC(=C/C(=O)O)/C=C/c1ccco1	–	inactive: -8.54%
CCc1ccc2[nH]c(C(=O)N(C)c3ccc(F)cc3F)cc2c1	–	inactive: 9.99%
O=C(COC(=O)c1cccs1)Nc1ccccc1[N+](=O)[O-]	–	inactive: -16.3%
COC(=O)N/N=C1\CCCc2c(C)cc(C)cc21	inconclusive: 50.1 µM [inhibitor, single point]	–
COc1ccc(COC(=O)N/N=C(\C)CC(=O)Nc2ccc(Cl)cc2)cc1	inconclusive: 56.2 µM [inhibitor, single point]	–
Cc1ccc(NC(=O)c2c(C(F)(F)F)nn(C)c2Cl)cc1C	–	inactive: -13.5%
CC(N=Cc1cc([N+](=O)[O-])ccc1O)c1ccccc1 (stereo not drawn)	inconclusive: 22.4 µM [inhibitor, partial curve]	–
O=C(Nc1ccc(N2CCN(Cc3ccccc3F)CC2)cc1)c1ccccc1[N+](=O)[O-]	inconclusive: 28.2 µM [inhibitor, partial curve]	–
Cc1ccc(S(=O)(=O)n2nc(OC(=O)C3CCCCC3)cc2N)cc1	inconclusive: 31.6 µM [inhibitor, partial curve]	–
CCOc1cccc(-c2cc(C(=O)NN)[nH]n2)c1	inconclusive: 25.1 µM [inhibitor, partial curve]	–
COc1ccc(-c2nc(SCC(=O)NCCc3ccccc3)n[nH]2)cc1	inconclusive: 56.2 µM [inhibitor, single point]	–
CCOc1ccc(NC(=O)C(C)n2c(=O)cc(C)c3c(C)nn(-c4ccccc4)c32)cc1 (stereo not drawn)	–	inactive: 3.76%
N#C/C(=C\c1cc(Br)c(O)c(Br)c1)c1nc2ccccc2c(=O)[nH]1	–	inactive: -2.6%
c1ccc2c(N3CCCC3)nc(-c3ccncc3)nc2c1	inconclusive: 12.6 µM [inhibitor, partial curve]	–
O=C(O)CNS(=O)(=O)c1ccc2c(c1)Cc1cc(S(=O)(=O)NCC(=O)O)ccc1-2	–	inactive: -5.24%
Fc1ccc(C2=Nn3c(Cc4ccccc4F)nnc3SC2)cc1	inconclusive: 7.94 µM [inhibitor, partial curve]	–
CCN(C1CCCCC1)S(=O)(=O)c1ccc(S(=O)(=O)NCCc2ccncc2)cc1	inconclusive: 50.1 µM [inhibitor, single point]	–
COc1cc(OC)c2c(-c3cccc(-c4ccc(OC(F)(F)F)cc4)c3)cc(=O)oc2c1	inconclusive: 31.6 µM [inhibitor, partial curve]	–
COc1ccc(NS(=O)(=O)c2ccc(S(=O)(=O)N3CCCC3)cc2)cc1Cl	inconclusive: 20 µM [inhibitor, partial curve]	–
CCOc1ccc(C(=O)Nc2cccc(-c3ccc4nncn4n3)c2)cc1	inconclusive: 31.6 µM [inhibitor, single point]	–
CNC(=O)c1c(NC(=O)c2ccc(S(=O)(=O)N(C)c3ccccc3)cc2)sc2c1CCN(C(C)C)C2	inconclusive: 6.31 µM [inhibitor, partial curve]	–
CC1CC(C)(C)n2c(O)c(N=NC(N)=S)c3cccc1c32 (stereo not drawn)	inconclusive: 22.4 µM [inhibitor, partial curve]	–
